Data from the supplement of paper PMC3334620.
Over roughly 33,000 sequences, “E-score (-0.5 to 0.5)” has its median near -0.041; the highest 2% begin near 0.37. The list shows a part of the results.

target: T1, Ecm22 (UniProt Q05958); assay: PBM E-score (8-mer binding enrichment) (E-score (-0.5 to 0.5)); higher = stronger / more preferred TF binding; most listed sequences are background and not binding sites; details: protein concentration: 200 nM; construct: GST-full length
T1 sequence: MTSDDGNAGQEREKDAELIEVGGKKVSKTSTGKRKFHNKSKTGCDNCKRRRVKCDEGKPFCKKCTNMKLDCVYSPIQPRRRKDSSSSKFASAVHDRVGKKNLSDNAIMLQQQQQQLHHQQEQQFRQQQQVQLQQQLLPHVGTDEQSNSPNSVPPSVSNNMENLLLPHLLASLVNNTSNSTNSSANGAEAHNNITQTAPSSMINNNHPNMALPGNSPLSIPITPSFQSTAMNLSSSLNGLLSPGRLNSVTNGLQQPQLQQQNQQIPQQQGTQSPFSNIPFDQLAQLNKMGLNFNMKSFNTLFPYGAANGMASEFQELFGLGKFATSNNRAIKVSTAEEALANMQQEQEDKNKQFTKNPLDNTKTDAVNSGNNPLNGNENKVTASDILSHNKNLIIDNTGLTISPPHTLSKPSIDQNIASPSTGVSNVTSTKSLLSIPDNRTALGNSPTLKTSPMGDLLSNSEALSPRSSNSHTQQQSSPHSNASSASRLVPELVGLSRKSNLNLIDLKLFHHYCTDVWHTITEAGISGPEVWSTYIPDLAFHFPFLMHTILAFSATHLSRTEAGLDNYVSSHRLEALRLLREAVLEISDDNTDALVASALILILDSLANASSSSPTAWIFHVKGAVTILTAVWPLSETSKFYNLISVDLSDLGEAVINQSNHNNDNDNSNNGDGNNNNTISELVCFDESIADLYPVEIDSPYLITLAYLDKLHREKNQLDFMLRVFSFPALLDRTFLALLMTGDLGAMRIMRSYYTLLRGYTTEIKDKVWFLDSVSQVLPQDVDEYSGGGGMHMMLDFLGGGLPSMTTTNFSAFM
Procedure, shortened: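 Universal all-10-mer Agilent arrays, double-stranded by primer extension on fresh or once-stripped slides, were probed with about 100-200 nM GST-tagged yeast transcription factors made by PURExpress. Fluorescent anti-GST detected bound protein, and masliner normalised the scans. E-scores from the Universal PBM Analysis Suite were given to each ungapped eight-base word pooled with its reverse complement.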

Sequence	PBM E-score
CAAGGATC	0.00425
CCCGGCAG	-0.122
ATGCGTGG	-0.0188
ACTAGATC	-0.0944
GACCTCGA	0.107
ATCCGTGA	0.0516
ATCTAAGG	-0.207
ACCTAACG	0.0706
TGATTGAA	0.0812
CTCGTAAA	0.475
CATGTTTC	0.0119
ATTTATCA	-0.00297
AGGCCCGA	0.041
ACGAAAGA	0.205
CTCACTTA	-0.0382
ATGACGCG	0.186
AACTGTCC	-0.0452
CACGTGGA	-0.17
CGCCCTAG	-0.133
CACTTAGA	-0.144
CGTTACAA	0.0964
GTAACAGA	0.0792
ATAACGAG	0.205
GGACTCAA	-0.239
GGAACGCA	0.23

Sequence	PBM E-score
CAAGCCCC	-0.197
GAGCGGCA	-0.0931
ATATAAAT	0.129
CAGTGACA	-0.271
ACTAGCTG	0.113
AACCCAAA	-0.103
CCCGCGAC	0.0171
AGTTAGCG	0.0306
GCACAGGC	0.0112
CAGACGGC	-0.198
CGGGCCGC	0.0557
AGCAGGCG	0.0758
GACGTTGA	-0.115
AACATTAG	-0.0606
TACAAAAA	-0.013
ATCAAAAA	-0.179
GATATCCA	-0.0159
CGTGACTC	-0.128
CGTCACAC	0.0499
CAGCAGGG	-0.186
CCCTCCAC	-0.259
ACATCTCA	-0.145
ATTACCAG	-0.0353
ACGGGTCC	0.0774
ACAACTGG	-0.155

Sequence	PBM E-score
TTCTAGAA	-0.0493
ATAAGACG	0.0331
TATCCTGA	0.0693
ACCGCGCG	0.123
CGTGTCTA	-0.0169
GCGTGGAC	-0.108
ACCATGGA	-0.121
TGTACTAA	0.092
GCGACGCA	0.173
ACGCGAAC	0.24
CGAGATAC	0.261
GAAATACA	-0.00128
GTGGTCAA	-0.0412
AAGAAGAG	-0.0693
AGTGGGCA	-0.0436
AGTCCACC	-0.3
CTCTGGGA	-0.25
GATCAATA	-0.175
CGTCCACG	-0.106
ATAATTCG	0.202
CAAGTAGC	-0.194
CGGGCTAC	-0.0124
AGCTTTTA	0.165
CTAACTGA	-0.183
TATGAGAA	-0.151

Sequence	PBM E-score
AGGAACAT	-0.104
CTCAGCTA	-0.238
AGAAACTA	-0.145
AATTCCGT	0.0301
CCCCGACA	-0.251
ACGTACCT	0.213
CCTCACGC	-0.123
CAATTCAC	-0.00451
TGAGCACA	-0.253
ACGCATGA	0.00527
CGGTGCAA	0.0841
TGCCGCAA	-0.0595
ACCAAGTC	0.00779
CTCACCAG	-0.213
GCGCCAGC	-0.0914
ACAGGGGG	-0.239
AAATGGAT	-0.0975
CAACCAGC	-0.0694
ATCCCGGA	-0.24
CGAGTATC	0.246
ATTTCTCG	0.229
GGGGATTA	-0.0927
TGCAAAAA	-0.0209
ATCGTGGC	-0.104
CCGGTTGA	-0.108

Sequence	PBM E-score
GGCTGATA	-0.0685
AGGAGCGC	0.0125
ACGAGCGG	0.386
GAATTACC	-0.0182
GGCTGCCC	-0.0698
GTACGGAC	0.372
AGACGACC	0.0158
AAAGAAAG	0.0385
AATTCTCA	-0.247
AGCGACCT	0.0578
GCTAGTCC	-0.0725
AATAGCAT	-0.215
AGCTCTGA	-0.212
AACCAGGT	-0.215
ACTTTCGC	0.0123
AGGGCCGC	-0.255
AACCGCGC	-0.0112
GAAGTTCA	-0.152
GAAACAAA	-0.0214
CTAGCTAG	-0.192
CGATGCGA	0.272
AGGTGGAG	-0.362
CAGGCATC	-0.102
CCAAAAGC	-0.151
AGCATACC	-0.0196

Sequence	PBM E-score
AGGATTAT	-0.0588
ACAACTCG	0.259
ATCGAACC	0.0684
ACAGTACC	-0.136
CGGATGGA	0.083
GCCTTATA	-0.00121
AATGATCT	-0.00115
AATATGTG	0.0912
CCTTATAA	-0.116
CGTCAAAG	0.0161
TCAGCGGA	0.0271
CGAAAACG	0.24
CATTCATC	-0.193
GTGTGGGA	-0.0804
AGCATGAG	-0.145
CGTTTCAG	0.189
CATTTACC	-0.0682
CACAGTCA	-0.133
ACGTACCC	0.295
CCGCGAAA	-0.0377
ACTTAATA	-0.0103
AGCCGTGC	-0.144
CAAAGCTA	0.00269
ACGCCAAA	0.0175
GGATTGAC	-0.064

Sequence	PBM E-score
GTCGTACA	0.484
CCACACGG	-0.029
ATGCGGAA	0.164
AACACTAC	0.0419
GAGATTTA	-0.0844
CGGCACAG	0.0624
CACTATGC	0.0833
AGAATCGC	0.114
GACGATAA	0.0921
CTTAATGA	0.0476
AAATTTAT	0.159
CCGACTAG	-0.0411
AGCGGCAT	0.0603
GCATTTCC	-0.0374
GTCCAGGA	-0.0186
TTCACCAA	-0.0582
AGTATCAC	0.00643
AATCACGG	-0.0233
GATCTTCC	-0.0798
AGAAGCCA	-0.0549
ATGAGGAG	-0.229
CCCGTCAC	-0.12
